Data as given in the supplement of paper PMC8728848.
Some of the results follow.

Experiments:
Experiment in all cases: glycan array binding signal (z-score within array); higher = stronger binding
Settings in all cases: glycan notation: IUPAC condensed, linker removed
[1] = molecular target: Fuc(a1-2)Gal(b1-4)GlcNAc6S
Summary of the method: (§1)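 The binding signal is a Z-score computed within each array and averaged over linkers. Arrays of the same protein sequence at different concentrations or buffers were also averaged together. Data originate from 3228 arrays in the Consortium for Functional Glycomics database, kept only where the protein sequence was available.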

[2] = molecular target: Fuc(a1-2)Gal(b1-4)[Fuc(a1-3)]GlcNAc
Summary of the method: as §1

[3] = molecular target: Fuc(a1-2)Gal(b1-4)[Fuc(a1-3)]GlcNAc(b1-2)Man(a1-3)[Fuc(a1-2)Gal(b1-4)[Fuc(a1-3)]GlcNAc(b1-2)Man(a1-6)]Man(b1-4)GlcNAc(b1-4)GlcNAc
Summary of the method: as §1

[4] = molecular target: Fuc(a1-2)Gal(b1-4)[Fuc(a1-3)]GlcNAc(b1-3)Gal(b1-4)[Fuc(a1-3)]GlcNAc
Summary of the method: as §1

[5] = molecular target: Fuc(a1-2)Gal(b1-4)[Fuc(a1-3)]GlcNAc(b1-3)Gal(b1-4)[Fuc(a1-3)]GlcNAc(b1-3)Gal(b1-4)[Fuc(a1-3)]GlcNAc
Summary of the method: as §1

Fuc(a1-2)Gal6S(b1-4)Glc = molecular target: Fuc(a1-2)Gal6S(b1-4)Glc
Summary of the method: as §1

[6] = molecular target: Fuc(a1-2)Gal6S(b1-4)Glc6S
Summary of the method: as §1

[7] = molecular target: Fuc(a1-2)Gal6S(b1-4)GlcNAc
Summary of the method: as §1

Fuc(a1-2)[Gal(a1-3)]Gal = molecular target: Fuc(a1-2)[Gal(a1-3)]Gal
Summary of the method: as §1

[8] = molecular target: Fuc(a1-2)[Gal(a1-3)]Gal(b1-3)GlcNAc
Summary of the method: as §1

[9] = molecular target: Fuc(a1-2)[Gal(a1-3)]Gal(b1-3)GlcNAc(b1-2)Man(a1-3)[Fuc(a1-2)[Gal(a1-3)]Gal(b1-3)GlcNAc(b1-2)Man(a1-6)]Man(b1-4)GlcNAc(b1-4)GlcNAc
Summary of the method: as §1

[10] = molecular target: Fuc(a1-2)[Gal(a1-3)]Gal(b1-4)Glc
Summary of the method: as §1

[11] = molecular target: Fuc(a1-2)[Gal(a1-3)]Gal(b1-4)GlcNAc
Summary of the method: as §1

[12] = molecular target: Fuc(a1-2)[Gal(a1-3)]Gal(b1-4)GlcNAc(b1-2)Man(a1-3)[Fuc(a1-2)[Gal(a1-3)]Gal(b1-4)GlcNAc(b1-2)Man(a1-6)]Man(b1-4)GlcNAc(b1-4)GlcNAc
Summary of the method: as §1

[13] = molecular target: Fuc(a1-2)[Gal(a1-3)]Gal(b1-4)[Fuc(a1-3)]GlcNAc
Summary of the method: as §1

[14] = molecular target: Fuc(a1-2)[Gal(a1-4)]Gal(b1-4)GlcNAc
Summary of the method: as §1

[15] = molecular target: Fuc(a1-2)[GalNAc(a1-3)]Gal
Summary of the method: as §1

[16] = molecular target: Fuc(a1-2)[GalNAc(a1-3)]Gal(b1-3)GalNAc(a1-3)[Fuc(a1-2)]Gal(b1-4)GlcNAc
Summary of the method: as §1

[17] = molecular target: Fuc(a1-2)[GalNAc(a1-3)]Gal(b1-3)GlcNAc
Summary of the method: as §1

[18] = molecular target: Fuc(a1-2)[GalNAc(a1-3)]Gal(b1-3)GlcNAc(b1-2)Man(a1-3)[Fuc(a1-2)[GalNAc(a1-3)]Gal(b1-3)GlcNAc(b1-2)Man(a1-6)]Man(b1-4)GlcNAc(b1-4)GlcNAc
Summary of the method: as §1

[19] = molecular target: Fuc(a1-2)[GalNAc(a1-3)]Gal(b1-4)Glc
Summary of the method: as §1

[20] = molecular target: Fuc(a1-2)[GalNAc(a1-3)]Gal(b1-4)GlcNAc
Summary of the method: as §1

[21] = molecular target: Fuc(a1-2)[GalNAc(a1-3)]Gal(b1-4)GlcNAc(b1-2)Man(a1-3)[Fuc(a1-2)[GalNAc(a1-3)]Gal(b1-4)GlcNAc(b1-2)Man(a1-6)]Man(b1-4)GlcNAc(b1-4)GlcNAc
Summary of the method: as §1

B1: Mincle (Homo sapiens), Q9ULY5 (protein)
chain: MNSSKSSETQCTERGCFSSQMFLWTVAGIPILFLSACFITRCVVTFRIFQTCDEKKFQLPENFTELSCYNYGSGSVKNCCPLNWEYFQSSCYFFSTDTISWALSLKNCSAMGAHLVVINSQEEQEFLSYKKPKMREFFIGLSDQVVEGQWQWVDGTPLTKSLSFWDVGEPNNIATLEDCATMRDSSNPRQNWNDVTCFLNYFRICEMVGINPLNKGKSL
[1]
  glycan array binding signal (z-score): 0.321
[2]
  glycan array binding signal (z-score): -0.37
[3]
  glycan array binding signal (z-score): 0.167
[4]
  glycan array binding signal (z-score): -0.341
[5]
  glycan array binding signal (z-score): -0.204
Fuc(a1-2)Gal6S(b1-4)Glc
  glycan array binding signal (z-score): -0.325
[6]
  glycan array binding signal (z-score): -0.076
[7]
  glycan array binding signal (z-score): -0.106
Fuc(a1-2)[Gal(a1-3)]Gal
  glycan array binding signal (z-score): -0.136
[8]
  glycan array binding signal (z-score): -0.318
[9]
  glycan array binding signal (z-score): -0.113
[10]
  glycan array binding signal (z-score): -0.4
[11]
  glycan array binding signal (z-score): -0.111
[12]
  glycan array binding signal (z-score): -0.165
[13]
  glycan array binding signal (z-score): -0.371
[14]
  glycan array binding signal (z-score): -0.654
[15]
  glycan array binding signal (z-score): -0.296
[16]
  glycan array binding signal (z-score): -0.46
[17]
  glycan array binding signal (z-score): -0.452
[18]
  glycan array binding signal (z-score): 0.062
[19]
  glycan array binding signal (z-score): -0.346
[20]
  glycan array binding signal (z-score): -0.289
[21]
  glycan array binding signal (z-score): 1.11
